Results: patent EP1566447A1, “Glimepiride- and insulin-induced glycosylphosphatidylinositol-specific phospholipase C regulation” (priority 2004, dated 2005)

Test system: Isolated rat adipocytes
Assay: glimepiride-induced redistribution of signaling proteins within DIGs
Conditions: compared to basal adipocytes; Fig. 5

SMILES: CCC1=C(C)CN(C(=O)NCCc2ccc(S(=O)(=O)NC(=O)N[C@H]3CC[C@H](C)CC3)cc2)C1=O [Glimepiride, glimepiride]
- losses of pp59^Lyn, Gce1 and 5'-Nuc at hcDIGs: 70 to 90%
